Assay results from the supplement of paper PMC8047034.
Structures can show the parent of a compound that is named as a salt. The list shows a part of the results. Single values are uncertain, as repeats are few or missing.

How the values were obtained:
OVCAR4 = test: log2 surviving fraction (library drug vs vehicle, or drug + carboplatin vs carboplatin alone; relative to plate median); ovarian cancer lines: OVCAR4 is platinum-sensitive and Ov4Carbo platinum-resistant; higher = more cell survival; settings: library drug concentration 10 µM, 7 days
Ov4Carbo = test: as above; settings: library drug concentration 10 µM, 7 days

COc1c2ccoc2cc2oc(=O)ccc12 [Bergapten]
log2 surviving fraction (OVCAR4; carboplatin co-treatment 0 µM): 1.18 | log2 surviving fraction (OVCAR4; carboplatin co-treatment 5 µM): 0.647 | log2 surviving fraction (Ov4Carbo; carboplatin co-treatment 0 µM): 0.181 | log2 surviving fraction (Ov4Carbo; carboplatin co-treatment 5 µM): 0.848

O=C(O)c1ccccc1 [Benzoic acid]
log2 surviving fraction (OVCAR4; carboplatin co-treatment 0 µM): -0.926 | log2 surviving fraction (OVCAR4; carboplatin co-treatment 5 µM): 0.629 | log2 surviving fraction (Ov4Carbo; carboplatin co-treatment 0 µM): -0.653 | log2 surviving fraction (Ov4Carbo; carboplatin co-treatment 5 µM): 0.0274

O=C1N=C(O)NC1(c1ccccc1)c1ccccc1 [Phenytoin sodium (Dilantin)]
log2 surviving fraction (OVCAR4; carboplatin co-treatment 0 µM): 0.0932 | log2 surviving fraction (OVCAR4; carboplatin co-treatment 5 µM): 0.809 | log2 surviving fraction (Ov4Carbo; carboplatin co-treatment 0 µM): 0.423 | log2 surviving fraction (Ov4Carbo; carboplatin co-treatment 5 µM): 0.621

CCCCNc1ccc(C(=O)OCCN(C)C)cc1 [Tetracaine hydrochloride (Pontocaine)]
log2 surviving fraction (OVCAR4; carboplatin co-treatment 0 µM): 0.248 | log2 surviving fraction (OVCAR4; carboplatin co-treatment 5 µM): 0.234 | log2 surviving fraction (Ov4Carbo; carboplatin co-treatment 0 µM): 1.52 | log2 surviving fraction (Ov4Carbo; carboplatin co-treatment 5 µM): 0.381

NC(CO)C(=O)NNCc1ccc(O)c(O)c1O (configuration not stated) [Benserazide]
log2 surviving fraction (OVCAR4; carboplatin co-treatment 0 µM): 1.26 | log2 surviving fraction (OVCAR4; carboplatin co-treatment 5 µM): 1.04 | log2 surviving fraction (Ov4Carbo; carboplatin co-treatment 0 µM): 1.87 | log2 surviving fraction (Ov4Carbo; carboplatin co-treatment 5 µM): 1.98

N=C(N)NC(=O)c1nc(Cl)c(N)nc1N [Amiloride hydrochloride (Midamor)]
log2 surviving fraction (OVCAR4; carboplatin co-treatment 0 µM): -0.212 | log2 surviving fraction (OVCAR4; carboplatin co-treatment 5 µM): -0.0101 | log2 surviving fraction (Ov4Carbo; carboplatin co-treatment 0 µM): -1.81 | log2 surviving fraction (Ov4Carbo; carboplatin co-treatment 5 µM): 0.0298

CCC1=C[C@H]2CN3CCc4c([nH]c5ccccc45)[C@](C(=O)OC)(C2)[C@H]13 [Catharanthine]
log2 surviving fraction (OVCAR4; carboplatin co-treatment 0 µM): -1.51 | log2 surviving fraction (OVCAR4; carboplatin co-treatment 5 µM): -1.27 | log2 surviving fraction (Ov4Carbo; carboplatin co-treatment 0 µM): -0.432 | log2 surviving fraction (Ov4Carbo; carboplatin co-treatment 5 µM): 0.141

NS(=O)(=O)c1cc2c(cc1C(F)(F)F)NC(Cc1ccccc1)NS2(=O)=O (configuration not stated) [Bendroflumethiazide]
log2 surviving fraction (OVCAR4; carboplatin co-treatment 0 µM): 0.695 | log2 surviving fraction (OVCAR4; carboplatin co-treatment 5 µM): -7.06 | log2 surviving fraction (Ov4Carbo; carboplatin co-treatment 0 µM): -0.76 | log2 surviving fraction (Ov4Carbo; carboplatin co-treatment 5 µM): 2.08

CC[C@H]1OC(=O)[C@H](C)[C@@H](O[C@H]2C[C@@](C)(OC)[C@@H](O)[C@H](C)O2)[C@H](C)[C@@H](O[C@@H]2O[C@H](C)C[C@H](N(C)C)[C@H]2O)[C@](C)(O)C[C@@H](C)C(=O)[C@H](C)[C@@H](O)[C@]1(C)O [Erythromycin (E-Mycin)]
log2 surviving fraction (OVCAR4; carboplatin co-treatment 0 µM): 0.357 | log2 surviving fraction (OVCAR4; carboplatin co-treatment 5 µM): 0.184 | log2 surviving fraction (Ov4Carbo; carboplatin co-treatment 0 µM): -1.43 | log2 surviving fraction (Ov4Carbo; carboplatin co-treatment 5 µM): -0.276

O=C1[C@@H]2[C@H]3CC[C@H](C3)[C@@H]2C(=O)N1C[C@@H]1CCCC[C@H]1CN1CCN(c2nsc3ccccc23)CC1 [Lurasidone HCl]
log2 surviving fraction (OVCAR4; carboplatin co-treatment 0 µM): -0.962 | log2 surviving fraction (OVCAR4; carboplatin co-treatment 5 µM): -0.879 | log2 surviving fraction (Ov4Carbo; carboplatin co-treatment 0 µM): -0.858 | log2 surviving fraction (Ov4Carbo; carboplatin co-treatment 5 µM): -0.82

CC1(C)O[C@@H]2C[C@H]3[C@@H]4C[C@H](F)C5=CC(=O)C=C[C@]5(C)[C@@]4(F)[C@@H](O)C[C@]3(C)[C@]2(C(=O)CO)O1 [Fluocinolone acetonide (Flucort-N)]
log2 surviving fraction (OVCAR4; carboplatin co-treatment 0 µM): 0.18 | log2 surviving fraction (OVCAR4; carboplatin co-treatment 5 µM): -0.0459 | log2 surviving fraction (Ov4Carbo; carboplatin co-treatment 0 µM): 0.435 | log2 surviving fraction (Ov4Carbo; carboplatin co-treatment 5 µM): 0.673

COc1ccc(C(=O)CC(=O)c2ccc(C(C)(C)C)cc2)cc1 [Avobenzone (Parsol 1789)]
log2 surviving fraction (OVCAR4; carboplatin co-treatment 0 µM): 0.291 | log2 surviving fraction (OVCAR4; carboplatin co-treatment 5 µM): -0.14 | log2 surviving fraction (Ov4Carbo; carboplatin co-treatment 0 µM): 0.262 | log2 surviving fraction (Ov4Carbo; carboplatin co-treatment 5 µM): 0.304

O=C1CC[C@@]2(O)[C@H]3Cc4ccc(O)c5c4[C@@]2(CCN3CC2CC2)[C@H]1O5 [Naltrexone HCl]
log2 surviving fraction (OVCAR4; carboplatin co-treatment 0 µM): 0.0958 | log2 surviving fraction (OVCAR4; carboplatin co-treatment 5 µM): -0.267 | log2 surviving fraction (Ov4Carbo; carboplatin co-treatment 0 µM): -0.341 | log2 surviving fraction (Ov4Carbo; carboplatin co-treatment 5 µM): -0.184

CC[C@H]1OC(=O)[C@H](C)[C@@H](O[C@H]2C[C@@](C)(OC)[C@@H](O)[C@H](C)O2)[C@H](C)[C@@H](O[C@@H]2O[C@H](C)C[C@H](N(C)C)[C@H]2O)[C@](C)(O)C[C@@H](C)/C(=N\OCOCCOC)[C@H](C)[C@@H](O)[C@]1(C)O [Roxithromycin (Roxl-150)]
log2 surviving fraction (OVCAR4; carboplatin co-treatment 0 µM): -0.85 | log2 surviving fraction (OVCAR4; carboplatin co-treatment 5 µM): -0.756 | log2 surviving fraction (Ov4Carbo; carboplatin co-treatment 0 µM): -0.361 | log2 surviving fraction (Ov4Carbo; carboplatin co-treatment 5 µM): 0.255

COCCOC(=O)C1=C(C)NC(C)=C(C(=O)OC(C)C)C1c1cccc([N+](=O)[O-])c1 (configuration not stated) [Nimodipine (Nimotop)]
log2 surviving fraction (OVCAR4; carboplatin co-treatment 0 µM): -0.487 | log2 surviving fraction (OVCAR4; carboplatin co-treatment 5 µM): 0.504 | log2 surviving fraction (Ov4Carbo; carboplatin co-treatment 0 µM): 0.0355 | log2 surviving fraction (Ov4Carbo; carboplatin co-treatment 5 µM): 0.996

Cc1cc(C#N)cc(C)c1Oc1nc(Nc2ccc(C#N)cc2)nc(N)c1Br [Etravirine (TMC125)]
log2 surviving fraction (OVCAR4; carboplatin co-treatment 0 µM): -4.47 | log2 surviving fraction (OVCAR4; carboplatin co-treatment 5 µM): -3.02 | log2 surviving fraction (Ov4Carbo; carboplatin co-treatment 0 µM): -2.97 | log2 surviving fraction (Ov4Carbo; carboplatin co-treatment 5 µM): -1.95

COc1c(N2CCNC(C)C2)c(F)cc2c(=O)c(C(=O)O)cn(C3CC3)c12 (configuration not stated) [Gatifloxacin]
log2 surviving fraction (OVCAR4; carboplatin co-treatment 0 µM): 0.566 | log2 surviving fraction (OVCAR4; carboplatin co-treatment 5 µM): 0.0638 | log2 surviving fraction (Ov4Carbo; carboplatin co-treatment 0 µM): -1.16 | log2 surviving fraction (Ov4Carbo; carboplatin co-treatment 5 µM): -1.36

Cc1cc(O)ccc1Cl [Chlorocresol]
log2 surviving fraction (OVCAR4; carboplatin co-treatment 0 µM): 0.622 | log2 surviving fraction (OVCAR4; carboplatin co-treatment 5 µM): 0.784 | log2 surviving fraction (Ov4Carbo; carboplatin co-treatment 0 µM): -0.136 | log2 surviving fraction (Ov4Carbo; carboplatin co-treatment 5 µM): 0.289

Cc1ccccc1C(OCCN(C)C)c1ccccc1 (configuration not stated) [Orphenadrine citrate (Norflex)]
log2 surviving fraction (OVCAR4; carboplatin co-treatment 0 µM): 0.994 | log2 surviving fraction (OVCAR4; carboplatin co-treatment 5 µM): -1.58 | log2 surviving fraction (Ov4Carbo; carboplatin co-treatment 0 µM): -0.155 | log2 surviving fraction (Ov4Carbo; carboplatin co-treatment 5 µM): 0.718

CN1C(CCl)Nc2cc(Cl)c(S(N)(=O)=O)cc2S1(=O)=O (configuration not stated) [Methyclothiazide]
log2 surviving fraction (OVCAR4; carboplatin co-treatment 0 µM): 0.00591 | log2 surviving fraction (OVCAR4; carboplatin co-treatment 5 µM): -0.334 | log2 surviving fraction (Ov4Carbo; carboplatin co-treatment 0 µM): 0.519 | log2 surviving fraction (Ov4Carbo; carboplatin co-treatment 5 µM): 0.682

CCC1(c2cccc(O)c2)CCCCN(C)C1 (configuration not stated) [Meptazinol HCl]
log2 surviving fraction (OVCAR4; carboplatin co-treatment 0 µM): -2.05 | log2 surviving fraction (OVCAR4; carboplatin co-treatment 5 µM): -0.253 | log2 surviving fraction (Ov4Carbo; carboplatin co-treatment 0 µM): -0.0309 | log2 surviving fraction (Ov4Carbo; carboplatin co-treatment 5 µM): 0.412

NCCc1c[nH]c2ccc(O)cc12 [Serotonin HCl]
log2 surviving fraction (OVCAR4; carboplatin co-treatment 0 µM): 1.35 | log2 surviving fraction (OVCAR4; carboplatin co-treatment 5 µM): 1.36 | log2 surviving fraction (Ov4Carbo; carboplatin co-treatment 0 µM): 0.787 | log2 surviving fraction (Ov4Carbo; carboplatin co-treatment 5 µM): 0.934

CC(=O)N[C@@H](CS)C(=O)O [Acetylcysteine]
log2 surviving fraction (OVCAR4; carboplatin co-treatment 0 µM): -4.67 | log2 surviving fraction (OVCAR4; carboplatin co-treatment 5 µM): 0.575 | log2 surviving fraction (Ov4Carbo; carboplatin co-treatment 0 µM): 0.608 | log2 surviving fraction (Ov4Carbo; carboplatin co-treatment 5 µM): 0.411

C[C@H]1COc2c(N3CCN(C)CC3)c(F)cc3c(=O)c(C(=O)O)cn1c23 [Levofloxacin (Levaquin)]
log2 surviving fraction (OVCAR4; carboplatin co-treatment 0 µM): -0.878 | log2 surviving fraction (OVCAR4; carboplatin co-treatment 5 µM): -1.24 | log2 surviving fraction (Ov4Carbo; carboplatin co-treatment 0 µM): 0.683 | log2 surviving fraction (Ov4Carbo; carboplatin co-treatment 5 µM): -0.0877

CCc1cc(C(N)=S)ccn1 [Ethionamide]
log2 surviving fraction (OVCAR4; carboplatin co-treatment 0 µM): 0.0598 | log2 surviving fraction (OVCAR4; carboplatin co-treatment 5 µM): -0.442 | log2 surviving fraction (Ov4Carbo; carboplatin co-treatment 0 µM): 0.0266 | log2 surviving fraction (Ov4Carbo; carboplatin co-treatment 5 µM): -0.146

CN(C)CCOC(C)(c1ccccc1)c1ccccn1 (configuration not stated) [Doxylamine Succinate]
log2 surviving fraction (OVCAR4; carboplatin co-treatment 0 µM): 1.26 | log2 surviving fraction (OVCAR4; carboplatin co-treatment 5 µM): 0.628 | log2 surviving fraction (Ov4Carbo; carboplatin co-treatment 0 µM): 0.784 | log2 surviving fraction (Ov4Carbo; carboplatin co-treatment 5 µM): 0.554

O=c1c(-c2ccc(O)cc2)coc2cc(O)cc(O)c12 [Genistein]
log2 surviving fraction (OVCAR4; carboplatin co-treatment 0 µM): 0.915 | log2 surviving fraction (OVCAR4; carboplatin co-treatment 5 µM): -0.913 | log2 surviving fraction (Ov4Carbo; carboplatin co-treatment 0 µM): -0.221 | log2 surviving fraction (Ov4Carbo; carboplatin co-treatment 5 µM): -0.171

C[C@H]1O[C@@H](n2cc(F)c(=O)[nH]c2=O)[C@H](O)[C@@H]1O [Doxifluridine]
log2 surviving fraction (OVCAR4; carboplatin co-treatment 0 µM): 0.422 | log2 surviving fraction (OVCAR4; carboplatin co-treatment 5 µM): -0.109 | log2 surviving fraction (Ov4Carbo; carboplatin co-treatment 0 µM): -0.369 | log2 surviving fraction (Ov4Carbo; carboplatin co-treatment 5 µM): -0.222
